From PubChem BioAssay AID360 (National Center for Advancing Translational Sciences (NCATS), 2006)
The campaign covered roughly 48,000 compounds. About 550 (1.1%) were called active. About 4% were inconclusive and are not listed. No stated cut-off is given here; in the data, active means potency below about 15 µM; inconclusive means mostly about 16 µM to 33 µM; inactive means weaker than that. The list shows a part of the results.

The molecules below were run against Lysosomal acid glucosylceramidase (Homo sapiens) (UniProt P04062) (assay: Glucocerebrosidase). Conditions: purified enzyme, resorufin glucoside fluorescence (screen aimed at inhibitors), 20 min.
Sequence of UniProt P04062 (P04062 whole entry, looked up): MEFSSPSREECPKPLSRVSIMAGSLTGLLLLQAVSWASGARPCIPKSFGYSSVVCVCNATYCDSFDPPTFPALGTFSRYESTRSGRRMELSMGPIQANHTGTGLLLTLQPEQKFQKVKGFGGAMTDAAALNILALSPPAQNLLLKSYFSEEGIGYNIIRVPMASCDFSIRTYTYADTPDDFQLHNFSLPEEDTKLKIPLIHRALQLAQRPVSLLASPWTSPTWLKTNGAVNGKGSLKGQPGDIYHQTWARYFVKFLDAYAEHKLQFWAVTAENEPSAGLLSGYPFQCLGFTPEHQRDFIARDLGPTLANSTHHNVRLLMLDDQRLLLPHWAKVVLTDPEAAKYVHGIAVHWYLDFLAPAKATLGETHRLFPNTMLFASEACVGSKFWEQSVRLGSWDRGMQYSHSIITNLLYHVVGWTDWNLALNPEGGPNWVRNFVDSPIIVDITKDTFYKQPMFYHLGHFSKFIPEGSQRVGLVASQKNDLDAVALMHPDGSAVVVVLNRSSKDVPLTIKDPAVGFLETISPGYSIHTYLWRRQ
How it was run: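 Normal human glucocerebrosidase (0.2 nM final) was assayed with resorufin β-D-glucopyranoside (30 uM final) in 50mM citric acid/KH2PO4, 10mM sodium taurocholate, 0.01% tween-20, pH 5.9. Compounds were titrated; fluorescence (Ex 548, Em 600) read after 20 min at RT.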
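Further: the screen sought inhibitors.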
Potency means the concentration at half of the fitted maximal effect.

Potency, inactive:
CC(C)(/C=N/O)/[N+]([O-])=C/C=[N+](\[O-])C(C)(C)/C=N/O > 76.9 µM
CCn1c(Oc2ccc(Oc3ncc(Cl)cc3Cl)cc2)nc2c1c(=O)n(C)c(=O)n2C > 76.9 µM
COc1ccc(NC(=O)C=C(C)C)cc1Cl > 76.9 µM
Cc1onc(-c2ccccc2)c1C(N)=O > 76.9 µM
COc1ccc(Cc2nnc(NC(=O)C3CCCO3)s2)cc1 (centres undefined) > 76.9 µM
O=C(NCc1ccco1)Oc1ccccc1 > 76.9 µM
Nc1ccccc1-c1nc2ccccc2[nH]1 > 76.9 µM
O=C(Cc1c(O)c2ccccc2[nH]c1=O)NC1CCCCCCC1 > 76.9 µM
Cc1nn(-c2ccc(F)cc2)c2c1cc(C#N)c1nc3ccccc3n12 > 76.9 µM
CCOC(=O)CN1CC23C=CC(O2)C(C(=O)NC2CCCCC2)C3C1=O (centres undefined) > 76.9 µM
Cn1nnnc1SCC(=O)N1c2ccccc2CCc2ccccc21 > 76.9 µM
CCCn1c(SCC(=O)Nc2nnc(C(C)C)s2)nc2c1c(=O)n(C)c(=O)n2C > 76.9 µM
CCOCCc1nnc(NC(=O)CN2C(=O)c3ccccc3C2=O)s1 > 76.9 µM
COc1ccc(-c2nnc(SC3CCOC3=O)n2C2CCCCC2)cc1OC (centres undefined) > 76.9 µM
CCN(CC)C(=O)CSCC(=O)Nc1ccccc1 > 76.9 µM
Cc1[nH]n2c(=O)cc(Cc3ccccc3)nc2c1C#N > 76.9 µM
Cc1noc(C)c1C(=O)N1CCc2ccccc2C1 > 76.9 µM
CCOC(=O)c1ccc(NC(=O)N2CCN(c3ccccn3)CC2)cc1 > 76.9 µM
COCC(=O)NC1CCN(S(=O)(=O)c2ccc(C(=O)O)cc2)CC1 > 76.9 µM
O=C(NCCN1CCOCC1)NC1(C(F)(F)F)Oc2ccccc2O1
CCn1c(SCC(=O)c2ccccc2)nnc1-c1cnccn1 > 76.9 µM
Cn1c(=O)c(=O)n(C)c2cc(S(=O)(=O)N3CCN(Cc4ccccc4)CC3)ccc21 > 76.9 µM
Cc1sc2ncnc(OCC(=O)NCC3CCCO3)c2c1C (centres undefined) > 76.9 µM
CC(C)NC(=O)CCCn1c(=S)[nH]c2cc3c(cc2c1=O)OCO3 > 76.9 µM
CCN(CC)C(=O)CSc1nnc(-c2ccco2)n1Cc1ccco1 > 76.9 µM
O=C(NCC1CCCO1)C1CCC(=O)N1Cc1ccccc1Cl (centres undefined) > 76.9 µM
COc1ccc(-c2cc3ccc(OCc4nn[nH]n4)cc3oc2=O)cc1OC > 76.9 µM
O=C(CN1C(=O)C2C3C=CC(C3)C2C1=O)N1CC(=O)N(CCc2ccccc2)C(=O)C1 (centres undefined) > 76.9 µM
CCC(=O)Nc1ccc(NC(=O)CSc2nnc(C(C)C)n2C)cc1 > 76.9 µM
CCOC(=O)CSc1nnc(CNC(=O)c2ccccc2OC)n1-c1ccc(OC)cc1 > 76.9 µM
CCCC(NC(=O)c1ccccc1)c1nc2ccccc2n1Cc1ccc(C(=O)OC)o1 (centres undefined) > 76.9 µM
COc1ccc(NC(C)=O)cc1NC(=O)CCn1c(=O)sc2ccccc21 > 76.9 µM
COc1cc2ccccc2cc1C(=O)Nc1ccc(N2CCN(C)CC2)cc1 > 76.9 µM
COc1ccc(OC)c(N=c2oc3c(OC)cccc3cc2C(=O)NCc2ccco2)c1 > 76.9 µM
O=C(NCC1COc2ccccc2O1)c1ccc(NC(=O)C2CCCO2)cc1 (centres undefined)
O=C(O)CC(NC(=O)C(c1ccccc1)c1ccccc1)c1ccco1 (centres undefined) > 76.9 µM
CCc1nccn1S(=O)(=O)c1ccc(Br)cc1Br > 76.9 µM
O=C(Cn1c(=O)n(Cc2ccco2)c(=O)c2ccccc21)NCC1CCCO1 (centres undefined) > 76.9 µM
C=CCc1cc(OC)ccc1OCCON1C(=O)CCC1=O > 76.9 µM
CC(C)c1ccc(-c2nc(N3CCOCC3)[nH]c(=O)c2C#N)cc1 > 76.9 µM
COc1ccc(-n2nnnc2SCC(=O)c2ccc(OC)c(OC)c2)cc1 > 76.9 µM
COc1ccc(CCN(Cc2cc3cc4c(cc3[nH]c2=O)OCO4)C(C)=O)cc1OC > 76.9 µM
CCn1nc(C(=O)N2CCN(Cc3ccc4c(c3)OCO4)CC2)c2ccccc2c1=O > 76.9 µM
COC(=O)c1ccc(NC(=O)CN(c2ccc(OC)cc2)S(C)(=O)=O)cc1 > 76.9 µM
Cc1cc(-n2c(C)cc(C(=O)CN3C(=O)NC4(CCCCC4C)C3=O)c2C)no1 (centres undefined) > 76.9 µM
CC(=O)C1=C(c2ccccc2)NC(=O)NC1c1ccccc1OCC#N (centres undefined) > 76.9 µM
COc1ccc(C(=O)N2CC3(C)CC2CC(C)(C)C3)cc1 (centres undefined) > 76.9 µM
CCn1nc(C(=O)Nc2ccc(S(=O)(=O)Nc3nccs3)cc2)c2ccccc2c1=O > 76.9 µM
CC(C)c1ccc(NC(=O)CSc2nnc(-c3ccccn3)n2C)cc1 > 76.9 µM
CC1(C)CC(CCNC(=O)c2ccc(-n3cnnn3)cc2)CC(C)(C)N1 > 76.9 µM
CCS(=O)(=O)Nc1ccc(C(=O)CC2(O)C(=O)Nc3ccccc32)cc1 (centres undefined) > 76.9 µM
Cc1ccc2cc(CN(CC3CCCO3)S(=O)(=O)c3cccc4nsnc34)c(=O)[nH]c2c1 (centres undefined) > 76.9 µM
O=C(c1cc2n(n1)C(C(F)(F)F)CC(c1ccc(F)cc1)N2)N1CCCC1 (centres undefined) > 76.9 µM
Cn1c(=O)c2c(nc(N3CCc4ccccc4C3)n2Cc2ccccc2F)n(C)c1=O > 76.9 µM
CC(C)(C)C1=C(C#N)C(c2cc3c(cc2Br)OCO3)C(C#N)=C(N)O1 (centres undefined)
Cc1ccc(S(=O)(=O)c2cc3c(=O)n4cc(C)ccc4nc3n(CC3CCCO3)c2=N)cc1 (centres undefined) > 76.9 µM
O=C(O)CCc1ccc(-c2ccc(F)cc2)n1Cc1ccco1 > 76.9 µM
C=C(C)COc1ccc(-c2[nH]ncc2-c2ccc(OC)c(OC)c2)c(O)c1 > 76.9 µM
Cc1cccc(C)c1N1CCN(S(=O)(=O)c2ccc(F)cc2)CC1 > 76.9 µM
CN1CCc2c(sc3nc(SCC(N)=O)n(-c4ccccc4)c(=O)c23)C1 > 76.9 µM
Cc1cc(C)n(C(=O)CN2C(=O)COc3ccccc32)n1 > 76.9 µM
CCCCNC(=O)C1C2C=CC3(CN(Cc4ccc(C)cc4)C(=O)C13)O2 (centres undefined) > 76.9 µM
O=C(N1CCOCC1)C1(c2ccccc2)CCCCC1 > 76.9 µM
CCCC(c1nnnn1Cc1ccccc1)N1CCN(c2ccccc2OC)CC1 (centres undefined) > 76.9 µM
COCCN1CC(O)=C(c2nc3ccccc3c(=O)[nH]2)C1=N > 76.9 µM
COc1cc(C(=O)Nc2ccc(NC(=O)C3CC3)nc2)cc(OC)c1OC > 76.9 µM
O=S(=O)(c1ccc2c(c1)OCCO2)N1CCC(c2nc3ccccc3s2)CC1 > 76.9 µM
Cc1ccc(C(N)=S)c(C)c1 > 76.9 µM
Cn1ncc2c1ncn1c(-c3ccccc3Cl)nnc21 > 76.9 µM
CCOC(=O)C1CCCN(CCC(=O)Nc2ccc(F)c(F)c2)C1 (centres undefined) > 76.9 µM
C=CCn1c(-c2ccc(Cl)cc2)c[nH]c1=S > 76.9 µM
Cc1cc(C)n(-c2ccc(C(=O)OCC(=O)N(CC(C)C)C3CCS(=O)(=O)C3)cc2)n1 (centres undefined) > 76.9 µM
CCOC(=O)c1c(C)c(C(=O)NCCCOC)c(C)n1C > 76.9 µM
CC(=O)c1ccc2c3c(cccc13)C(=O)N(c1c(C)nn(C)c1C)C2=O > 76.9 µM
CC(C)N1C(=S)SC(C)(C)C1NO (centres undefined) > 76.9 µM
Cc1ccc2nc(NC(=O)C3CCCN(S(=O)(=O)c4cccc5nsnc45)C3)sc2c1 (centres undefined) > 76.9 µM
N#Cc1c(N)n(CCNC(=O)c2cccs2)c2nc3ccccc3nc12
Cc1cc2cc(CN(CC3CCCO3)C(=O)c3cnccn3)c(=O)[nH]c2cc1C (centres undefined) > 76.9 µM
O=c1cc(O)nc(SC23CC4CC(CC(C4)C2)C3)[nH]1 > 76.9 µM
O=C(Cn1c(=O)sc2ccccc21)Nc1ccccc1C(=O)O > 76.9 µM
O=C(NCC1CCCO1)C1c2ccccc2C(=O)N1Cc1ccc2c(c1)OCO2 (centres undefined) > 76.9 µM
Cc1c(NC(=O)c2ccccc2NS(=O)(=O)c2ccc(F)cc2)c(=O)n(-c2ccccc2)n1C > 76.9 µM
Cc1cc(C)c2c(CC(=O)NCc3ccco3)coc2c1 > 76.9 µM
Cc1ccc(NC2=NC(c3ccc(O)cc3)n3c(nc(C)cc3=O)N2)cc1 (centres undefined) > 76.9 µM
CCS(=O)(=O)N1CCCC(C(=O)NCCCN(C)Cc2ccccc2)C1 (centres undefined) > 76.9 µM
C=CCn1c(=O)[nH]c2cc(C(=O)N3CCN(c4cc(C)ccc4C)CC3)ccc2c1=O > 76.9 µM
Cc1nn(-c2ccccc2)c2nc(-c3ccco3)cc(C(=O)O)c12 > 76.9 µM
COc1ccc(N2C(=NC(C)=O)SC3CS(=O)(=O)CC32)cc1OC (centres undefined) > 76.9 µM
COCC(=O)N(CCc1ccc(OC)cc1)Cc1nc2ccccc2c(=O)[nH]1 > 76.9 µM
